In all, about 410,000 compounds went through this assay and about 7,200 (1.8%) were called active. The shares of active, inactive and inconclusive entries below differ from those in the screen. The call rests on the fitted dose curve; in most records, active means well fitted activation curve with a large enough effect; inconclusive means small, poorly fitted or top-dose-only effect, or another doubt; inactive means no such curve, though single readings can be large or run the other way. Potencies of inconclusive entries are left out as doubtful fits.
Assay: qHTS of TDP-43 Inhibitors; further: nearly all actives have a fitted effect of over 50% in size; on growth rescue (activation): % of control where 0% means no effect
Conditions: TDP-43 expressing yeast growth rescue, BacTiter-Glo, 24 h; growth rescue (activation): at 46.1 µM (top of the series) unless noted
Outline: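 Yeast cells expressing TDP-43 under galactose induction are exposed to compounds for 24 hr at 30 deg C. BacTiter-Glo luminescence measures growth, so protective compounds score as activators.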
Potency means the concentration at half of the fitted maximal effect; tags describe the fitted curve by direction and shape.

Question: With COc1cc(C(c2sc3nc(C)nn3c2O)N2CCc3ccccc3C2)cc(OC)c1OC (configuration not stated) as the compound, how does the Potency read?
Answer: inconclusive [activator, full curve, poor fit]

Question: With N/C(=N\OC(=O)COc1ccc(Cl)cc1Cl)c1ccncc1 as the compound, how does the Potency read?
Answer: inconclusive [activator, single point]

Question: With CSc1ccccc1-c1cnc2cccnn12 as the compound, how does the Potency read?
Answer: inconclusive [activator, partial curve, poor fit]

Question: For Cc1oc(=O)c(NC(=O)c2ccccc2)cc1C(=O)c1ccccc1, which growth rescue (activation) is on record?
Answer: inconclusive: -87.7% [activator]

Question: With CCOC(=O)c1cccc(NC(=O)CCS(=O)(=O)c2cccs2)c1 as the compound, how does the Potency read?
Answer: inconclusive [activator, single point]

Question: With CCNC(=O)c1sc(-c2ccccc2)nc1C as the compound, how does the Potency read?
Answer: inconclusive [activator, partial curve]

Question: Which Potency does the source give for CCN(CC)C(=O)c1sc2nc(-c3ccccn3)[nH]c(=O)c2c1C here?
Answer: inactive

Question: Which Potency does the source give for COc1cc(NC(=O)c2ccco2)c(OC)cc1NC(=O)CCC(=O)Nc1cc(C)ccc1C here?
Answer: inconclusive [activator, single point]

Question: With CCn1c(SCC(=O)N2CCCc3ccccc32)nc2ccccc2c1=O as the compound, how does the Potency read?
Answer: inconclusive [activator, single point]

Question: For Cc1ccc(NC(=O)COc2ccc(/C=C3/SC(=Nc4ccccc4)N(Cc4cccnc4)C3=O)cc2)cc1, which Potency is on record?
Answer: inactive

Question: With COc1cc(C(=O)NC2CCN(Cc3ccccc3)CC2)cc(Cl)c1OC as the compound, how does the Potency read?
Answer: inconclusive [activator, full curve, poor fit]

Question: With Cc1ccc(C)c(N2CCN(C(=O)c3ccc(CS(=O)Cc4ccc(Cl)cc4)o3)CC2)c1 (configuration not stated) as the compound, how does the Potency read?
Answer: inconclusive [activator, single point]

Question: With N/C(=N\OC(=O)c1ccccc1F)c1ccc([N+](=O)[O-])cc1 as the compound, how does the Potency read?
Answer: inconclusive [activator, full curve]

Question: For CNC(=S)N/N=C(\C)c1ccc(N2CCOCC2)cc1, which Potency is on record?
Answer: inconclusive [activator, partial curve]

Question: For CC1CCCCC1NC(=O)COC(=O)c1cccn1C (configuration not stated), which Potency is on record?
Answer: inconclusive [activator, partial curve]

Question: For Cc1ccc(C)c(OCC(=O)N2CCc3ccccc3C2)c1, which Potency is on record?
Answer: inconclusive [activator, partial curve]

Question: With COCc1nnc(NC(=O)c2ccc(S(=O)(=O)N(CC(C)C)CC(C)C)cc2)o1 as the compound, how does the Potency read?
Answer: inconclusive [activator, partial curve]

Question: Which Potency does the source give for COc1ccc(-c2cc(-c3ccccc3)nc(-c3ccc4c(c3)NC(=O)CO4)c2)cc1 here?
Answer: active: 12.6 µM

Question: For O=C1NC(c2cccs2)Nc2ccccc21 (configuration not stated), which Potency is on record?
Answer: inconclusive [activator, full curve]

Question: Which Potency does the source give for c1ccc(-c2nc(NC3CC3)nc(-n3ccnc3)n2)cc1 here?
Answer: active: 5.01 µM

Question: With O=C(Nc1ccccc1-c1nc2ccccc2[nH]1)c1ccc(N2C(=O)CCC2=O)cc1 as the compound, how does the Potency read?
Answer: inactive

Question: For O=C(CN1CCN(c2ccc(Cl)cc2)CC1)Nc1ccc(Cl)c(C(F)(F)F)c1, which Potency is on record?
Answer: inconclusive [activator, single point]

Question: With Cc1ccc(NC2c3ncccc3C(=O)N2Cc2cccs2)cc1 (configuration not stated) as the compound, how does the Potency read?
Answer: inactive

Question: With CCOc1ccc(S(=O)(=O)N2CCN(C(=O)CCOc3ccccc3C)CC2)cc1 as the compound, how does the Potency read?
Answer: inconclusive [activator, partial curve]

Question: With O=C(OC(c1ccccc1)c1nccc2ccccc12)c1cc([N+](=O)[O-])cc([N+](=O)[O-])c1 (configuration not stated) as the compound, how does the Potency read?
Answer: active: 6.31 µM

Question: Which Potency does the source give for CC(C)Oc1ccc(/C(O)=C2/C(=O)C(=O)N(CCN3CCOCC3)C2c2ccccc2)cc1 (configuration not stated) here?
Answer: inactive

Question: For O=C(COC(=O)CC(c1ccccc1)c1ccccc1)NCc1ccc(Cl)cc1, which Potency is on record?
Answer: inconclusive [activator, single point]

Question: With Cc1cccc(-c2nc(CCNC(=O)c3ccccc3Br)cs2)c1 as the compound, how does the Potency read?
Answer: active: 12.6 µM

Question: With COc1ccc(C(=O)C2CCCN(S(=O)(=O)c3cccnc3)C2)c(C)c1 (configuration not stated) as the compound, how does the Potency read?
Answer: inconclusive [activator, partial curve]

Question: Which Potency does the source give for COc1ccccc1NC(=O)CCS(=O)(=O)c1ccc2c(c1)NC(=O)C(C)S2 (configuration not stated) here?
Answer: inactive

Question: Which Potency does the source give for O=C(Nc1cc(F)ccc1F)c1ccc2c(c1)nnn2C1CCCC1 here?
Answer: inactive

Question: With Cc1ccc(S(=O)(=O)N(CC(=O)N2CCc3ccccc3C2)c2ccc(C)c(C)c2)cc1 as the compound, how does the Potency read?
Answer: inconclusive [activator, full curve, poor fit]

Question: Which Potency does the source give for COc1cccc(-c2cc(NC=O)c3ncc(-c4ccc(OC)c(OC)c4)n3c2)c1 here?
Answer: inconclusive [activator, partial curve, poor fit]

Question: With O=C(Nc1ccc(O)c2c(=O)cc(-c3ccccc3Cl)oc12)c1ccc(F)cc1 as the compound, how does the Potency read?
Answer: inactive

Question: With CC(NC(=O)c1ccco1)c1ccc2c(c1)OCO2 (configuration not stated) as the compound, how does the Potency read?
Answer: inconclusive [activator, partial curve, poor fit]

Question: Which growth rescue (activation) does the source give for O=C(COC(=O)/C=C/c1ccc2ccccc2n1)NNC(=O)c1ccc([N+](=O)[O-])cc1 here?
Answer: inconclusive: 36.6% [activator]

Question: Which Potency does the source give for O=C(COC(=O)Cc1c(Cl)cccc1Cl)NCCC1=CCCCC1 here?
Answer: inconclusive [activator, partial curve]

Question: Which Potency does the source give for Cc1ccc2cccc(NC3OC(=O)c4ccccc43)c2n1 (configuration not stated) here?
Answer: inactive

Question: Which Potency does the source give for Cc1cc(C)cc(OCC(=O)NNC(=O)c2ccccn2)c1 here?
Answer: active: 20 µM

Question: With COc1ccc2c(-c3ccccc3)cc3nnnn3c2c1 as the compound, how does the Potency read?
Answer: inconclusive [activator, single point]

Question: For COC(=O)C1CCN(C(=O)c2ccc3oc(Cc4ccc(Cl)cc4)nc3c2)CC1, which Potency is on record?
Answer: inconclusive [activator, single point]

Question: With CCCNC(=O)c1ccc(N2CCC3(CC2)CC(c2ccccc2)=NO3)c(NC(=O)c2ccco2)c1 as the compound, how does the Potency read?
Answer: inconclusive [activator, single point]

Question: For CCc1nn(CC(=O)NCc2ccc(OC)cc2OC)c(=O)c2cc3c(OC)cccc3n12, which Potency is on record?
Answer: inconclusive [activator, single point]

Question: For O=C(CCCOc1ccc(Cl)cc1Cl)NCCCO, which Potency is on record?
Answer: inconclusive [activator, full curve, poor fit]

Question: With O=C(CCCOc1ccc(Cl)cc1Cl)N1CCc2ccccc2C1 as the compound, how does the Potency read?
Answer: inconclusive [activator, single point]

Question: For Cc1ccc2nc(-c3ccccc3C)oc(=O)c2c1, which Potency is on record?
Answer: inconclusive [activator, partial curve]

Question: Which Potency does the source give for COc1ccc(Cl)c(-c2cc(C(=O)NCc3ccco3)[nH]n2)c1 here?
Answer: inconclusive [activator, full curve, poor fit]

Question: With COC(=O)c1ccc(NC(=O)c2cc(-c3ccncc3)nc3ccccc23)cc1 as the compound, how does the Potency read?
Answer: inconclusive [activator, partial curve]

Question: For CCOc1cc(C2NC(=O)N(C)C(C)=C2C(=O)OC)cc(Br)c1O (configuration not stated), which Potency is on record?
Answer: inconclusive [activator, single point]

Question: For CC(=O)N[C@H]1[C@H](OC2CCCCC2)O[C@H](COC(C)=O)[C@@H](OC(C)=O)[C@@H]1OC(C)=O, which Potency is on record?
Answer: inconclusive [activator, partial curve]

Question: For COc1ccc(-c2cc(OC(=O)c3ccc(F)cc3)c3c(C)oc(C)c3c(=O)c2)cc1OC, which Potency is on record?
Answer: inactive

Question: For CCOC(=O)C1CCCN(C(=O)c2cccc(C(F)(F)F)c2)CC1 (configuration not stated), which Potency is on record?
Answer: inconclusive [activator, full curve, poor fit]

Question: With O=C(NCc1ccccc1F)C1CCN(Cc2cc3ccccc3n2Cc2cccc(Cl)c2)CC1 as the compound, how does the Potency read?
Answer: inactive

Question: For CC(C)Cc1cc(C(=O)N2CCCC(C(=O)c3cc(F)ccc3F)C2)no1 (configuration not stated), which Potency is on record?
Answer: inconclusive [activator, partial curve, poor fit]

Question: For O=C(COCc1cc(-c2cccs2)on1)NCc1ccccc1Cl, which Potency is on record?
Answer: active: 12.6 µM

Question: With COc1cccc(/C=N/c2oc(-c3ccccc3)cc2C#N)c1O as the compound, how does the Potency read?
Answer: active: 12.6 µM

Question: With O=C1C=C(NCc2ccc(Cl)cc2)CC(c2ccco2)C1 (configuration not stated) as the compound, how does the Potency read?
Answer: inconclusive [activator, partial curve]

Question: Which Potency does the source give for Cc1ccc(C(=O)CSC2=NC(N)=C(C#N)C3(CCCCC3)C2C(N)=O)cc1 (configuration not stated) here?
Answer: inconclusive [activator, partial curve]

Question: With CCN(CC(=O)N1CCC(C(N)=O)CC1)S(=O)(=O)c1cc(Cl)ccc1Cl as the compound, how does the Potency read?
Answer: inactive

Question: Which Potency does the source give for C/C(=N\Nc1cccc2cccnc12)c1ccccn1 here?
Answer: inconclusive [activator, partial curve]

Question: Which Potency does the source give for O=C(N/N=C/c1ccncc1)c1cccc(NC(=O)c2ccc(Cl)cc2)c1 here?
Answer: inconclusive [activator, partial curve]

Question: Which Potency does the source give for Cc1[nH]c2ccccc2c1C(C[N+](=O)[O-])c1cccs1 (configuration not stated) here?
Answer: inconclusive [activator, partial curve]

Question: With CC(=O)c1ccc(N2CCN(S(=O)(=O)c3ccc4c(c3)NC(=O)CC(=O)N4)CC2)cc1 as the compound, how does the Potency read?
Answer: inconclusive [activator, single point]

Question: For C/C(CCc1oc2ccc(Cl)cc2c1-c1ccc(C)o1)=N\O, which Potency is on record?
Answer: inconclusive [activator, partial curve]

Question: For COc1ccc(NC(=O)C2CCCN(S(=O)(=O)c3ccc(Cl)cc3)C2)cc1 (configuration not stated), which Potency is on record?
Answer: inactive

Question: Which Potency does the source give for CCC/C(=N/Nc1ccc(Cl)cc1)c1cnnc(-c2ccccc2)n1 here?
Answer: inconclusive [activator, full curve, poor fit]

Question: With Fc1ccc(Nc2c3c(nc4nncn24)CCC3)cc1 as the compound, how does the Potency read?
Answer: inconclusive [activator, partial curve, poor fit]

Source: PubChem BioAssay AID652104 (National Center for Advancing Translational Sciences (NCATS), 2013)
